In PubChem BioAssay AID493208 (National Center for Advancing Translational Sciences (NCATS), 2011):
The campaign covered roughly 44,000 compounds. About 340 (0.77%) were called active. Another 5% or so got no clear call; they are omitted. The call rests on the fitted dose curve; in most records, active means well fitted inhibition curve with a large enough effect; inconclusive means small, poorly fitted or top-dose-only effect; inactive means flat fitted curve, though single readings scatter. Some of the results follow.

Assay: Acumen qHTS Assay for Inhibitors of the mTORC1 Signaling Pathway in MEF (Tsc2-/-, p53-/-) Cells: Sytravon;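 further: plate controls were DMSO for no effect and rapamycin for full effect; nearly all actives have a fitted effect of over 50% in size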
Details: phospho-rpS6 immunofluorescence/PI, 24 h; series mostly up to 38.3 µM; activity change, negative = inhibition: at the top concentration
Outline: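 Cell-based qHTS: Tsc2-/- p53-/- MEF, 24 h cpd, 37 °C; fix/perm, anti-phospho-S6 Alexa-488 + PI; Acumen 488 nm scan; pS6/PI ratio, % positive cells; rapamycin 7.5 nM = inhibition ref; PI count = viability.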

Activity change, negative = inhibition, inactive:
COC(=O)c1sc2cccc(F)c2c1S(=O)(=O)NCc1ccc(Cl)cc1 -17.5%, Cc1ccc(-n2nc3ccc(NC(=O)Cc4ccc(Cl)cc4)cc3n2)cc1 0.0278%, CCOC(=O)COc1ccc(CC)cc1C(=O)c1ccn2nc(-c3ccc(Cl)cc3)cc2n1 4.87%, COc1ccc(-c2noc(N3CCN(c4ccc(C)cc4)C(C)C3)n2)cc1OC (centres undefined) 4.13%, COc1cccc(CNC(=O)CSC2=Nc3ccccc3C3=NC(C)C(=O)N23)c1OC (centres undefined) 0%, Cc1ccc(CSc2ncc(Cl)c(C(=O)Oc3ccc(F)cc3)n2)cc1 3.32%, CCOc1ccc(NC(=O)Cn2c(=O)n(CCCC(=O)NCc3ccc4c(c3)OCO4)c(=O)c3ccccc32)cc1 6.39%, Fc1ccc(-c2cc(C(F)(F)F)nc(NCc3ccccc3)n2)cc1 0%, O=C(c1ccc2c(c1)N(Cc1ccc(F)cc1)C(=O)c1ccccc1S2(=O)=O)N1CCN(c2ccccn2)CC1 0.117%, COc1ccccc1CNC(=O)c1cnc2c(-c3ccccc3)c(C)nn2c1C 0.318%, CCn1c(=O)n(-c2cccc(Cl)c2)c(=O)c2sc3ccccc3c21 -16.1%, CCc1nn(CC(=O)N2CCN(c3ccc(Cl)cc3)CC2)c(=O)c2cc3occc3n12 -1.64%, O=C(Nc1ccc(Cl)cc1)c1cc2nc(-c3ccc4c(c3)OCO4)cc(C(F)(F)F)n2n1 7.74%, CC(=O)c1ccc(N2CCN(C(=O)c3cc4ccc5cccnc5c4[nH]3)CC2)cc1 -3.61%, COc1ccc(C(=O)Nc2ccccc2-c2nc(-c3ccc(OC)cc3)no2)cc1 1.83%, O=C(c1cnc(N2CCCCC2)c2ccccc12)N1CCN(c2ccc(Cl)cc2)CC1 -11.3%, COc1ccc(CCN2CC(C(=O)NCCc3ccccc3)CC2=O)cc1OC (centres undefined) 4.61%, COc1ccc(OC)c(/C=C(\C#N)c2nc3ccccc3c(=O)[nH]2)c1 -3.1%, O=C(CCC(=O)c1ccccc1)Nc1ccc(F)c(Cl)c1 0.57%, O=S(=O)(NCCS(=O)(=O)N1CCN(c2ccccc2)CC1)c1ccc(Cl)cc1 -2.9%, Cc1cccc(NC(=O)C2CCCN(S(=O)(=O)c3ccc4c(c3)oc(=O)n4C)C2)c1 (centres undefined) -0.226%, Cc1sc2c(c1C)c(=O)n(CCc1ccccc1)c(=O)n2Cc1ccc(F)cc1 -7.23%, Cc1ccc(C)c(S(=O)(=O)NCCc2csc(-c3ccc(Cl)cc3)n2)c1 -0.0292%, CCOC(=O)c1ccc2c(c1)[C@@H]1C=CC[C@@H]1[C@H](c1cccc(OC)c1OC)N2 3.84%, Cc1cc(C)c2sc(N(Cc3cccnc3)C(=O)CCOc3ccccc3)nc2c1 -9.69%, CCCC(=O)C1=C(c2cccc(OC)c2)N(C(=O)CCC)n2c(C)nnc2S1 -3.47%, Cn1ccc2c(OCC(=O)Nc3ccc([N+](=O)[O-])cc3)cccc2c1=O -12.2%, CSc1ccc(CNC(=O)CN2C(=O)C3CCCCN3c3ccc(C(=O)N4CCCC4)cc32)cc1 (centres undefined) 1.27%, CCOC(=O)C1CCN(C(=O)c2ccc3c(c2)sc2nc(-c4ccc(C)cc4)cn23)CC1 -20.5%, O=S(=O)(NCc1nc2cccnc2n1Cc1ccc(F)cc1)c1ccc(Cl)s1 -3.49%, COc1ccc(-c2nc3cc(C(C)C)ccc3o2)cc1NC(=O)c1ccc(C)c(Cl)c1 5.4%, COc1ccc(NC(=O)c2cc(S(=O)(=O)NCCC3=CCCCC3)ccc2F)cc1 -16.9%, COC(=O)c1cc2sc(C)cc2n1CC(=O)Nc1cccc(SC)c1 -1.01%, Cc1cccc(OCC(=O)Nc2ccc3oc(-c4ccccc4F)nc3c2)c1 -2.62%, FC(F)(F)c1ccc(-c2noc(-c3ccccc3Br)n2)cc1 1.31%, CCc1ccc(NC(=O)C2CCN(S(=O)(=O)c3c(C)noc3/C=C/c3ccco3)CC2)cc1 -15.9%, CCCCCC(=O)N(c1ccc(OCC)cc1)S(=O)(=O)c1ccc2c(c1)n(C)c(=O)n2C -9.71%, Cc1ccc(CCNC(=O)c2ccc(CS(=O)(=O)Cc3cccc(C)c3)o2)cc1 6.7%, COc1ccc(Cn2ccc3nc(C)c(C(=O)N4CCN(c5ccccc5F)CC4)cc3c2=O)cc1 -23.8%, Cc1ccc(NC(=O)Cn2cc3c(n2)CCC(C)C3)cc1C (centres undefined) 0.341%, CCn1ccc2cc(S(=O)(=O)N3CCCN(C(=O)NCC(=O)OC)CC3)ccc21 -8.03%, Cc1ccccc1C(=O)NC1(C(F)(F)F)N=C(c2ccccc2)N(Cc2ccccc2)C1=O (centres undefined) -1.6%, COc1cccc(-c2cc(C(F)(F)F)n3nc(C)c(-c4ccccc4)c3n2)c1 0.0919%, CCc1ccccc1N(C)C(=O)c1nn(C)c2c1CSc1ccccc1-2 -7.65%, O=C(COc1ccccc1[N+](=O)[O-])Nc1cc(-c2nc3cc(Cl)ccc3o2)ccc1Cl -0.128%, COC(=O)c1ccc(Oc2nc3c(c(=O)n(C)c(=O)n3C)n2C(C)C)cc1 4.14%, CCCCNC(=O)CSc1nc2cc3c(cc2c(=O)n1CCCCCC(=O)NCCc1ccc(OC)c(OC)c1)OCO3 -7.55%, Cc1ccc2nc(N3CCC(C(=O)NCc4ccc(F)cc4)CC3)[nH]c2c1 7.8%, Cc1cc(C)c(S(=O)(=O)NCc2csc(-c3ccccc3)n2)c(C)c1 4.52%, Cc1ccc2nc(COc3cccc(NC(=O)c4cccc(Cl)c4)c3)cc(=O)n2c1 9.19%, CCC12CN3CC(C)(CN(C1)C3c1c[nH]c3ccc(OC)cc13)C2=O (centres undefined) -1.7%, Cc1ccc(OCC(=O)Nc2ccc3nc(SCC(=O)N4CCOCC4)sc3c2)cc1C -0.618%, CCOC(=O)C1CCCN(C(=O)CCS(=O)(=O)c2cc3c(cc2Cl)NC(=O)CO3)C1 (centres undefined) -0.0328%, CCC(Sc1nc2cc3c(cc2c(=O)n1CCCC(=O)NCc1ccc(OC)cc1)OCO3)C(=O)NCCCOC (centres undefined) -1.04%, CCN(CC)C(=O)c1sc2c(c1C)c(=O)n(-c1ccc(C)c(C)c1)c(=O)n2Cc1cccc(Cl)c1 -6.2%, Cc1ccc2cccc(NC(=O)c3ccc(C#N)cc3F)c2n1 -10.5%, Cc1ccccc1NC(=O)Cn1c(=O)n(CCC(=O)NCc2ccc3c(c2)OCO3)c(=O)c2sccc21 1.76%, CC(=O)N1CCc2cc(CNS(=O)(=O)c3ccc(C(C)(C)C)cc3)ccc21 8.04%, O=C1CN(C(=O)c2ccc(S(=O)(=O)N3CCCCC3)cc2)C(c2ccc(F)cc2)c2cc(Br)ccc2N1 (centres undefined) -16.6%
